Assay results from publication PMC6707248.
Results are given in words; binding and its absence hold for the method and conditions named. Tags and fused reporters may be left off the sequences shown.

By UniProt entry, the sequences of proteins in these tests, tags left out.
UniProt P06748: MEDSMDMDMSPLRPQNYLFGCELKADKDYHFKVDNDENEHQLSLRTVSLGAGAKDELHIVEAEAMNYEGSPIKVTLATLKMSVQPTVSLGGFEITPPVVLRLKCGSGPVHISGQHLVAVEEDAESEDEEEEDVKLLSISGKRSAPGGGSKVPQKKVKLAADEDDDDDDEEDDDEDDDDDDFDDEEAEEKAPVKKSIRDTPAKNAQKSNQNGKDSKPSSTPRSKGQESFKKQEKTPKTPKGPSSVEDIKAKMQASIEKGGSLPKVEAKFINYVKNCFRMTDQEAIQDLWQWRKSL

Biological target: GST-NPM1 (unSUMOylated) (UniProt P06748)
Assay: pull-down; GST pull-down; His-RAP80 FL or ΔSIM and GST-NPM1 purified from E. coli; GST-NPM1 SUMOylated in vitro or not; both purified

binding: no binding
B1: His-RAP80 ΔSIM (protein, UniProt Q96RL1)
chain: MPRRKKKVKEVSESRNLEKKDVETTSSVSVKRKRRLEDAGEEPKEENGLQKTKTKQSNRAKCLAKRKIAQMTEEEQFALALKMSEQEAREVNSQEEEEEELLRKAIAESLNSCRPSDASATRSRPLATGPSSQSHQEKTTDSGLTEGIWQLVPPSLFKGSHISQGNEAEEREEPWDHTEKTEEEPVSGSSGSWDQSSQPVFENVNVKSFDRCTGHSAEHTQCGKPQESTGRGSAFLKAVQGSGDTSRHCLPTLADAKGLQDTGGTVNYFWGIPFCPDGVDPNQYTKVILCQLEVYQKSLKMAQRQLLNKKGFGEPVLPRPPSLIQNECGQGEQASEKNECISEDMGDEDKEERQESRASDWHSKTKDFQESSIKSLKEKLLLEEEPTTSHGQSSQGIVEETSEEGNSVPASQSVAALTSKRSLVLMPESSAEEITVCPETQLSSSETFDLEREVSPGSRDILDGVRIIMADKEVGNKEDAEKEVAISTFSSSNQVSCPLCDQCFPPTKIERHAMYCNGLMEEDTVLTRRQKEAKTKSDSGTAAQTSLDIDKNEKCYLCKSLVPFREYQCHVDSCLQLAKADQGDGPEGSGRACSTVEGKWQQRLKNPKEKGHSEGRLLSFLEQSEHKTSDADIKSSETGAFRVPSPGMEEAGCSREMQSSFTRRDLNESPVKSFVSISEATDCLVDFKKQVTVQPGSRTRTKAGRGRRRKF
